Results published in the supplement of paper PMC6206098.
± gives the uncertainty stated by the source. Shown are siRNA guide strands that differ only in the seed, positions 2 to 7.

What was measured:
[1] = system: M565; assay: cell viability relative to lipid-only control; higher = less toxic; settings: concentration: 10 nM; 96 h; Mus musculus
[2] = system: HeyA8; assay: as above; settings: concentration: 10 nM; 96 h; Homo sapiens
[3] = system: H460; assay: as above; settings: concentration: 10 nM; 96 h; Homo sapiens
[4] = system: 3LL; assay: cell viability relative to siNT1 control; HeyA8 human ovarian and H460 human lung cancer; M565 mouse liver and 3LL mouse lung cancer; siNT1 is a non-toxic control siRNA; higher = less toxic; settings: concentration: 10 nM; 96 h; Mus musculus;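 also: Luminescence-based viability of cells reverse transfected in 384-well plates with lipid-complexed siRNAs built on a non-toxic 19mer backbone whose passenger strand carries 2′-O-methyl groups at positions 1 and 2, triplicates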
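For cell viability relative to lipid-only control in this document: reverse lipid transfection in 384-well plates, in triplicate, of duplexes on a non-toxic 19mer backbone with passenger strand 2′-O-methylated at positions 1 and 2, luminescence viability read-out.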

Sequence	cell viability [1] [%]	cell viability [2] [%]	cell viability [3] [%]	cell viability [4] [%]
UUAGCCCACAUGUAAACCAAA	17.6 ± 4.5	48.4 ± 1.1	24.6 ± 2.7	4.74 ± 1.6
UUAGCCGACAUGUAAACCAAA	72.5 ± 4	69.5 ± 4	65.9 ± 1.2	54.8 ± 7.2
UUAGCCUACAUGUAAACCAAA	23.3 ± 4.5	40 ± 3.4	54.4 ± 3.3	13.4 ± 4.2
UUAGCGAACAUGUAAACCAAA	69.1 ± 2.7	94.8 ± 2.8	102 ± 8.4	83.9 ± 14
UUAGCGCACAUGUAAACCAAA	59 ± 3.9	82.2 ± 1.8	82.3 ± 6.9	84.9 ± 5.6
UUAGCGGACAUGUAAACCAAA	64.4 ± 10	92.6 ± 2.1	83 ± 2.3	58.4 ± 9.5
UUAGCGUACAUGUAAACCAAA	35.1 ± 4	81.4 ± 2.2	101 ± 6.5	52.6 ± 5.7
UUAGCUAACAUGUAAACCAAA	73 ± 4.2	97.8 ± 1.9	96.7 ± 9.8	80.2 ± 12
UUAGCUCACAUGUAAACCAAA	56.6 ± 5.5	63.6 ± 5.9	51.3 ± 5.2	18.9 ± 1.8
UUAGCUGACAUGUAAACCAAA	108 ± 13	86.6 ± 2.7	95.8 ± 12	92.8 ± 10
UUAGCUUACAUGUAAACCAAA	67.3 ± 7.7	63.3 ± 2.5	66.9 ± 4	54.6 ± 6.8
UUAGGAAACAUGUAAACCAAA	87.9 ± 12	87.2 ± 6.3	77.5 ± 6.2	86.4 ± 5.7
UUAGGACACAUGUAAACCAAA	87 ± 22	44.1 ± 2.6	26.9 ± 5.8	81 ± 8.7
UUAGGAGACAUGUAAACCAAA	83.7 ± 6	82.4 ± 5	75 ± 2.3	71.2 ± 9
UUAGGAUACAUGUAAACCAAA	78.3 ± 6.3	60.62 ± 0.45	38.3 ± 7.3	57.2 ± 2.4
UUAGGCAACAUGUAAACCAAA	46.9 ± 5.8	77.8 ± 4.5	83.2 ± 13	81.9 ± 5
UUAGGCCACAUGUAAACCAAA	6.43 ± 1.3	28.2 ± 6	46.2 ± 3.9	12.3 ± 9.3
UUAGGCGACAUGUAAACCAAA	38 ± 5.4	94.56 ± 0.29	89.4 ± 14	80.3 ± 1.4
UUAGGCUACAUGUAAACCAAA	43.8 ± 9.5	37.8 ± 4.2	52.2 ± 4.9	44.1 ± 3.3
UUAGGGAACAUGUAAACCAAA	83.3 ± 6.5	86.3 ± 7.8	82.5 ± 11	78.3 ± 8.1

Sequence	cell viability [1] [%]	cell viability [2] [%]	cell viability [3] [%]	cell viability [4] [%]
UUAGGGCACAUGUAAACCAAA	27.8 ± 8.3	36.5 ± 2.5	41.3 ± 5.7	69.6 ± 2.9
UUAGGGGACAUGUAAACCAAA	68.5 ± 17	70.3 ± 7.4	77.1 ± 7.1	55.8 ± 12
UUAGGGUACAUGUAAACCAAA	16.8 ± 4.8	57.4 ± 2.8	63.8 ± 4.3	66.9 ± 7.9
UUAGGUAACAUGUAAACCAAA	83.4 ± 2.8	92.1 ± 6.8	81.6 ± 14	85.3 ± 9.3
UUAGGUCACAUGUAAACCAAA	36.9 ± 4.3	13.43 ± 0.13	24.6 ± 3.4	64.1 ± 8.6
UUAGGUGACAUGUAAACCAAA	56.6 ± 14	74.4 ± 2.7	79.2 ± 16	41.1 ± 6.8
UUAGGUUACAUGUAAACCAAA	67.4 ± 17	61.6 ± 1.6	72.2 ± 2.9	81.3 ± 4.3
UUAGUAAACAUGUAAACCAAA	95.7 ± 18	86.8 ± 3	74.6 ± 7.1	79.4 ± 7.4
UUAGUACACAUGUAAACCAAA	110 ± 14	54 ± 2.7	30.2 ± 1.2	12.3 ± 4.1
UUAGUAGACAUGUAAACCAAA	98 ± 9.1	68.2 ± 6.4	73.8 ± 14	99 ± 9.8
UUAGUAUACAUGUAAACCAAA	113 ± 8.8	65.1 ± 4.8	45.4 ± 6.1	106 ± 10
UUAGUCAACAUGUAAACCAAA	77.9 ± 6.3	91.6 ± 5.3	75.4 ± 9.2	89.2 ± 1.6
UUAGUCCACAUGUAAACCAAA	22.2 ± 13	32.9 ± 3.8	56.8 ± 9.8	15.4 ± 1.6
UUAGUCGACAUGUAAACCAAA	84.3 ± 14	100 ± 4.9	82.1 ± 8.7	94.8 ± 13
UUAGUCUACAUGUAAACCAAA	27.1 ± 3	96.5 ± 2	80.7 ± 15	66 ± 7.3
UUAGUGAACAUGUAAACCAAA	80.2 ± 2.5	91.2 ± 5.4	70.5 ± 10	84.4 ± 10
UUAGUGCACAUGUAAACCAAA	130 ± 6.5	73.3 ± 1.9	79.5 ± 9.2	54.8 ± 3.1
UUAGUGGACAUGUAAACCAAA	56.1 ± 3.7	64.1 ± 3.4	63.4 ± 6.7	31.8 ± 8
UUAGUGUACAUGUAAACCAAA	13.3 ± 4.9	37.3 ± 4	43.1 ± 8.7	67.8 ± 3.7
UUAGUUAACAUGUAAACCAAA	120 ± 15	91.6 ± 4.6	68.3 ± 16	97.8 ± 10

Sequence	cell viability [1] [%]	cell viability [2] [%]	cell viability [3] [%]	cell viability [4] [%]
UUAGUUCACAUGUAAACCAAA	67.2 ± 11	48.8 ± 7.8	38.1 ± 1.5	86.8 ± 12
UUAGUUGACAUGUAAACCAAA	87.6 ± 19	81.8 ± 7.8	73.7 ± 16	101 ± 7.4
UUAGUUUACAUGUAAACCAAA	104 ± 12	87.8 ± 5.9	75.4 ± 11	101 ± 6.4
UUAUAAAACAUGUAAACCAAA	69.4 ± 5.7	104 ± 1.1	82.5 ± 6.7	105 ± 4.1
UUAUAACACAUGUAAACCAAA	65.7 ± 11	55.4 ± 4.3	68.1 ± 12	70.4 ± 6.4
UUAUAAGACAUGUAAACCAAA	94.3 ± 6.9	100 ± 9	77.5 ± 24	71.7 ± 11
UUAUAAUACAUGUAAACCAAA	66.5 ± 5.1	88.1 ± 7.9	65.9 ± 12	91.9 ± 7.1
UUAUACAACAUGUAAACCAAA	88.5 ± 13	92 ± 4.6	74.5 ± 4	84 ± 11
UUAUACCACAUGUAAACCAAA	46.4 ± 16	62.9 ± 3.4	47.1 ± 2.7	6.2 ± 1.1
UUAUACGACAUGUAAACCAAA	100 ± 17	96.2 ± 16	80.4 ± 13	92.4 ± 8.9
UUAUACUACAUGUAAACCAAA	61.9 ± 7.4	48.6 ± 4.4	33.5 ± 4	36.8 ± 2.1
UUAUAGAACAUGUAAACCAAA	76.4 ± 18	76 ± 4.6	65.2 ± 4	61.1 ± 7.5
UUAUAGCACAUGUAAACCAAA	12.1 ± 1.7	31.1 ± 6.5	15.9 ± 0.76	16 ± 3
UUAUAGGACAUGUAAACCAAA	56.9 ± 9.5	63.1 ± 5	48 ± 7.6	32.6 ± 7.3
UUAUAGUACAUGUAAACCAAA	37 ± 2.8	31.3 ± 2.8	33.1 ± 3	13.5 ± 0.82
UUAUAUAACAUGUAAACCAAA	93 ± 12	102 ± 3.5	68.3 ± 13	86.7 ± 6.8
UUAUAUCACAUGUAAACCAAA	73.2 ± 7.8	64.6 ± 3.9	74.9 ± 17	18.1 ± 5.5
UUAUAUGACAUGUAAACCAAA	97.9 ± 21	89.2 ± 5.2	75.4 ± 17	78.2 ± 7.6
UUAUAUUACAUGUAAACCAAA	74.7 ± 12	77.4 ± 5.8	55.5 ± 8.3	75 ± 8.8
